B1: GLP1(7-36) A8G, V16L, S18K, Y19Q, G22E, Q23E, A25V, K26Q, E27L, A30E, V33L, K34A, G35T, R36G_[19GS]_ (Fc fusion)
chain: HGEGTFTSDLSKQLEEEAVQLFIEWLLATGGGGGGGGSGGGGSGGGGSA[sequence of human IgG4 Fc with changes omitted]GGGSGSAHPIPDSSPLLQFGGQVRQRYLYTDDACQTEAHLEIREDGTVGGAADQSPESLLQLKALKPGVIQILGVKTSRFLCQRPDGALYGSLHFDPEACSFRELLLEDGYNVYQSEAHGLPLHLPGCKSPHRDPAPRGPARFLPLPGLPPAPPEPPGILAPQPPDVGSSDPLSMVYPSQGRSPSYAS
B2: GLP1(7-36) insG, A8G, V16L, S18I, Y19Q, G22E, Q23E, A25V, K26R, E27L, A30E, V33L, K34A, R36G, insPKK (Fc fusion)
chain: GHGEGTFTSDLSIQLEEEAVRLFIEWLLAGGPKKQRLSGGGGGGGSGGGGSGGGGSA[sequence of human IgG4 Fc with changes omitted]GGGSGSAHPIPDSSPLLQFGGQVRQRYLYTDDACQTEAHLEIREDGTVGGAADQSPESLLQLKALKPGVIQILGVKTSRFLCQRPDGALYGSLHFDPEACSFRELLLEDGYNVYQSEAHGLPLHLPGCKSPHRDPAPRGPARFLPLPGLPPAPPEPPGILAPQPPDVGSSDPLSMVGSQGRSPSYAS

Biological target: human glucagon-like peptide-1 (GLP-1) receptor (human, UniProt P43220 24-463)
Chain of UniProt P43220 (P43220 24-463): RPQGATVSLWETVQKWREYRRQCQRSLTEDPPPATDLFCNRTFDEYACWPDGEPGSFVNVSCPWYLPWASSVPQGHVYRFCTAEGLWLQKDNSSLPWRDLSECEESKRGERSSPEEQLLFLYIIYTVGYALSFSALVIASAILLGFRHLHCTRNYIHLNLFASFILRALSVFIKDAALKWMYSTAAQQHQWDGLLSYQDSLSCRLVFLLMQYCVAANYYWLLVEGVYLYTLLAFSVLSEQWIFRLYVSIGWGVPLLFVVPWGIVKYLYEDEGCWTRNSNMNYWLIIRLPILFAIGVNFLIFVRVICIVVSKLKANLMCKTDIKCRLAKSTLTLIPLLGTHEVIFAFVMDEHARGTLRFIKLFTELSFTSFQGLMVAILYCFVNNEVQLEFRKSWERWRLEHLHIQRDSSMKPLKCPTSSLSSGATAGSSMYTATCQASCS
Assay: cell-based or functional assay

Row | Binder | EC50 of cAMP response (HTRF) | Ratio GLP-1R agonistic activity: native GLP-1(7-36)/tested GLP-1R agonist
1 | B1 | 63 pM | 81.9 fold
2 | B2 | 14.6 pM | 18.9 fold

Source: patent US20220401523A1 (Sanofi, published 2022)
